The antibiotic and cytotoxicity screens of Wong et al. (2023)
The list shows a part of the results.

Columns and labels:
HSkMC = human skeletal muscle cells; assay: cytotoxicity call (relative viability < 0.9); conditions: 10 µM
HepG2 = assay: cytotoxicity call (relative viability < 0.9); conditions: 10 µM
S. aureus RN4220 = assay: growth inhibition call (relative growth <= 0.2); conditions: 50 µM

| Structure (SMILES) | cytotoxicity call (HSkMC) | cytotoxicity call (HepG2) | growth inhibition call (S. aureus RN4220) |
| --- | --- | --- | --- |
| C[C@@H]1CN([C@H](C)CO)C(=O)c2cc(NC(=O)Nc3ccc(C(F)(F)F)cc3)ccc2O[C@@H](C)CCCCO[C@@H]1CN(C)S(=O)(=O)c1ccc(F)cc1 | inactive | inactive | inactive |
| C[C@@H]1CN([C@@H](C)CO)C(=O)c2cccc(NC(=O)C3CCCCC3)c2O[C@H]1CN(C)Cc1ccc(Cl)c(Cl)c1 | inactive | inactive | inactive |
| CO[C@H]1CN(C)C(=O)c2ccc(NS(=O)(=O)c3cn(C)cn3)cc2OC[C@H](C)N(CC2CC2)C[C@H]1C | inactive | inactive | inactive |
| CCC(=O)Nc1nn2c(C)nnc2s1 | inactive | inactive | inactive |
| O=C(O)COC(=O)Cc1ccccc1Nc1c(Cl)cccc1Cl | inactive | inactive | inactive |
| CCn1cc(C(=O)O)c(=O)c2cc(F)c(N3CCNCC3)nc21 | inactive | inactive | inactive |
| CN1C(=O)c2cc(NC(=O)c3cnccn3)ccc2OC[C@@H]2O[C@H](CC(=O)N[C@H]3CCN(Cc4ccccc4)C3)CC[C@@H]21 | inactive | inactive | inactive |
| C[C@H](CO)N1C[C@H](C)[C@H](CN(C)Cc2ccc3c(c2)OCO3)Oc2ccc(NS(=O)(=O)c3cn(C)cn3)cc2CC1=O | inactive | inactive | inactive |
| C[C@H]1CN([C@@H](C)CO)C(=O)Cc2cc(NS(=O)(=O)c3cccs3)ccc2O[C@H]1CN(C)C(=O)Nc1cccc2ccccc12 | inactive | inactive | inactive |
| COc1ccccc1-c1cnc2c(c1)C(=O)N([C@H](C)CO)C[C@H](C)[C@H](CN(C)C(=O)c1cccnc1)O2 | inactive | inactive | inactive |
| C[C@H](CO)N1C[C@H](C)[C@H](CN(C)Cc2ccc(-c3ccccc3)cc2)Oc2ccc(NC(=O)Cn3cnnn3)cc2CC1=O | inactive | inactive | inactive |
| C[C@H](CO)N1C[C@H](C)[C@H](CN(C)S(=O)(=O)c2ccccc2)Oc2ncc(C#Cc3ccc(F)cc3)cc2C1=O | inactive | inactive | inactive |
| COc1ccc(S(=O)(=O)N(C)C[C@H]2Oc3ccc(NS(=O)(=O)c4cn(C)cn4)cc3CC(=O)N([C@@H](C)CO)C[C@@H]2C)cc1 | inactive | inactive | inactive |
| C[C@H](O)C#Cc1ccc2c(c1)O[C@@H](CN(C)C(=O)c1ccncc1)[C@H](C)CN([C@H](C)CO)S2(=O)=O | inactive | inactive | inactive |
| COC(=O)C[C@@H]1C(=O)NCCN1C(=O)NS(=O)(=O)c1ccc(C)cc1 | inactive | inactive | inactive |
| C[C@H]1CN([C@@H](C)CO)C(=O)c2cccc(NC(=O)c3ccc(-c4nccs4)cc3)c2O[C@@H]1CN(C)CC1CCCCC1 | inactive | inactive | inactive |
| C[C@@H]1CCCCO[C@H](CN(C)C(=O)Nc2cccc3ccccc23)[C@@H](C)CN([C@H](C)CO)C(=O)c2cc(NC(=O)NC3CCCCC3)ccc2O1 | inactive | inactive | inactive |
| COc1ccc(S(=O)(=O)Nc2ccc3c(c2)C(=O)N([C@@H](C)CO)C[C@H](C)[C@@H](CN(C)S(=O)(=O)c2cccs2)O3)cc1 | inactive | inactive | inactive |
| COc1ccc2c3c([nH]c2c1)[C@H](CO)N(C[C@]13CCN(CC1)CC1CCCCC1)C(=O)Nc1c(noc1C)C | inactive | inactive | inactive |
| C[C@@H]1CN([C@H](C)CO)C(=O)c2cccc(NC(=O)c3ccncc3)c2O[C@H]1CN(C)S(=O)(=O)c1cn(C)cn1 | inactive | inactive | inactive |
| O=C(CCCCCCNC(=O)c1ccc(NCc2cn(Cc3ccc(C(=O)c4ccc(Cn5cc(CNc6ccc(C(=O)NCCCCCCC(=O)NO)cc6)nn5)cc4)cc3)nn2)cc1)NO | inactive | inactive | inactive |
| C[C@H](CO)N1C[C@H](C)[C@H](CN(C)S(=O)(=O)c2ccc(F)cc2)Oc2ccc(NS(=O)(=O)c3cn(C)cn3)cc2CC1=O | inactive | inactive | inactive |
| Cn1ccnc1CO | inactive | inactive | inactive |
| CO[C@H](CN(C)S(=O)(=O)c1ccc(Cl)cc1)[C@@H](C)CN([C@H](C)CO)S(=O)(=O)c1cccc(Cl)c1 | inactive | inactive | inactive |
| CN(C)CCCNC(=O)C[C@@H]1CC[C@H]2[C@H](COc3ccc(NC(=O)c4cccc(F)c4)cc3C(=O)N2C)O1 | inactive | inactive | inactive |
| C[C@@H]1CN([C@H](C)CO)C(=O)c2cccc(NC(=O)Nc3cccc4ccccc34)c2O[C@@H]1CN(C)S(=O)(=O)c1cccs1 | inactive | active | inactive |
| C[C@H](CO)N1C[C@H](C)[C@H](CN(C)S(=O)(=O)c2ccc(F)cc2)OCCCC[C@H](C)Oc2ccc(NS(C)(=O)=O)cc2C1=O | inactive | inactive | inactive |

| Structure (SMILES) | cytotoxicity call (HSkMC) | cytotoxicity call (HepG2) | growth inhibition call (S. aureus RN4220) |
| --- | --- | --- | --- |
| C[C@H]1CN([C@@H](C)CO)C(=O)Cc2cc(NS(C)(=O)=O)ccc2O[C@H]1CN(C)C(=O)Nc1ccc(C(F)(F)F)cc1 | inactive | inactive | inactive |
| C[C@H](CO)N1C[C@H](C)[C@@H](CN(C)C(=O)NC2CCCCC2)Oc2ccc(NC(=O)Nc3cccc4ccccc34)cc2C1=O | inactive | inactive | inactive |
| C[C@@H]1CN([C@H](C)CO)C(=O)c2cc(NC(=O)Cc3ccccc3)ccc2O[C@@H]1CN(C)Cc1ccc(Cl)c(Cl)c1 | inactive | inactive | inactive |
| C[C@@H]1CN([C@@H](C)CO)S(=O)(=O)c2ccc(C#Cc3ccncc3)cc2O[C@@H]1CN(C)S(=O)(=O)c1ccccc1 | inactive | active | inactive |
| Cc1cc(OCc2nnc(SC3CCCC3)n2-c2cccnc2)ccc1-c1ccc(S(C)(=O)=O)cc1 | active | active | inactive |
| COc1ccc(CNC(=O)N(C)C[C@H]2OCc3ccccc3-c3c(n(C)c4ccccc34)C(=O)N([C@H](C)CO)C[C@H]2C)cc1 | inactive | inactive | inactive |
| C[C@H]1CN([C@@H](C)CO)C(=O)Cc2cc(NS(=O)(=O)c3cn(C)cn3)ccc2O[C@H]1CN(C)Cc1ccc(C(=O)O)cc1 | inactive | inactive | inactive |
| COC(=O)C[C@@H]1C(C)(C)[C@H](OC(C)=O)[C@@H]2[C@@H](OC(C)=O)[C@]34O[C@@]2(O)[C@]1(C)[C@H]3CC[C@]1(C)C4=CC(=O)O[C@H]1c1ccoc1 | inactive | inactive | inactive |
| C[C@@H]1CCCCO[C@H](CN(C)S(=O)(=O)c2cccs2)[C@H](C)CN([C@@H](C)CO)C(=O)c2cc(NS(=O)(=O)c3ccc(Cl)cc3)ccc2O1 | inactive | active | inactive |
| COCC#Cc1ccc2c(c1)O[C@@H](CN(C)S(=O)(=O)c1cccc(F)c1)[C@H](C)CN([C@@H](C)CO)S2(=O)=O | inactive | inactive | inactive |
| COc1ccc(NC(=O)Nc2ccc3c(c2)[C@@H]2C[C@@H](CC(=O)NCc4ccccn4)O[C@@H](CO)[C@@H]2O3)cc1 | inactive | inactive | inactive |
| CCS(=O)(=O)N1CC[C@]2(CC1)CN([C@@H](CO)c1[nH]c3cc(ccc3c12)OC)C(=O)Cc1ccccn1 | inactive | inactive | inactive |
| C[C@@H]1CN([C@@H](C)CO)C(=O)c2cccc(NC(=O)Nc3ccc(C(F)(F)F)cc3)c2O[C@@H]1CN(C)Cc1ccccc1 | inactive | inactive | inactive |
| Cc1ccc(S(=O)(=O)Nc2ccc3c(c2)C(=O)N([C@@H](C)CO)C[C@@H](C)[C@H](CN(C)C(=O)Nc2ccc(F)cc2)OCCCC[C@@H](C)O3)cc1 | inactive | inactive | inactive |
| C=CCN(Cc1ccccc1)C(=O)[C@@H]1N(c2cccc(Cl)c2CO)C(=O)[C@H]2[C@H](C(=O)OCC)[C@@H]3C=C[C@]12O3 | inactive | inactive | inactive |
| Cc1ccc(-c2cnc3c(c2)C(=O)N([C@@H](C)CO)C[C@@H](C)[C@H](CN(C)C(=O)Cc2ccncc2)O3)cc1 | inactive | inactive | inactive |
| C[C@@H]1CN([C@@H](C)CO)C(=O)Cc2cc(NS(=O)(=O)c3ccc(F)cc3)ccc2O[C@@H]1CN(C)Cc1ccc(-c2ccccc2)cc1 | active | active | inactive |
| COc1ccc(NC(=O)Nc2ccc3c(c2)[C@H]2C[C@H](CC(=O)NCc4ccccn4)O[C@H](CO)[C@H]2O3)cc1 | inactive | inactive | inactive |
| C[C@H](CO)N1C[C@H](C)[C@H](CN(C)Cc2ccc(C(=O)Nc3ccccc3N)cc2)OCCCC[C@H](C)Oc2ccc(N(C)C)cc2C1=O | inactive | inactive | inactive |
| COc1ccc(NC(=O)Nc2ccc3c(c2)C(=O)N([C@H](C)CO)C[C@@H](C)[C@@H](CN(C)Cc2ccc(C(=O)O)cc2)OCCCC[C@H](C)O3)cc1 | inactive | inactive | inactive |
| C[C@H](CO)N1C[C@H](C)[C@H](CN(C)S(C)(=O)=O)Oc2c(NS(=O)(=O)c3cccs3)cccc2C1=O | inactive | inactive | inactive |
| C[C@@H]1CCCCO[C@@H](CN(C)C(=O)Nc2cccc3ccccc23)[C@H](C)CN([C@@H](C)CO)C(=O)c2cc(NC(=O)Cc3ccccc3)ccc2O1 | inactive | inactive | inactive |
| CN1CCC(CO)CC1 | inactive | inactive | inactive |
| Cc1ccc(S(=O)(=O)N(C)C[C@H]2Oc3ccc(NS(=O)(=O)c4cccs4)cc3C(=O)N([C@H](C)CO)C[C@H]2C)cc1 | inactive | inactive | inactive |
| C[C@@H]1CN([C@H](C)CO)C(=O)c2cccc(NC(=O)Nc3cccc4ccccc34)c2O[C@H]1CN(C)C(=O)Nc1ccc(F)cc1 | inactive | inactive | inactive |
| C[C@@H]1CN([C@H](C)CO)C(=O)CCCn2nncc2CO[C@H]1CN(C)S(=O)(=O)c1ccc(Oc2ccccc2)cc1 | inactive | inactive | inactive |
